Experimental findings from ChEMBL document CHEMBL4888484, “Replenishing the malaria drug discovery pipeline: Screening and hit evaluation of the MMV Hit Generation Library 1 (HGL1) against asexual blood stage Plasmodium falciparum ,using a nano luciferase reporter read-out” (2022) are described below.

The campaign covered roughly 150,000 compounds. About 540 (0.36%) showed an effect of 50% or more. The list shows a part of the results.

For the assay, the system named is Plasmodium falciparum. As to the kind of experiment: Primary screen in NF54 nanoGlo assay, in single point, at 2uM, 72h; a lower Z score goes with more inhibition. The following applies: timepoint 72 hour. The format is functional, Erythrocyte.
One may read the % Inhibition as the change of the read-out against control, counted positive when it falls. `Cc1ccc(NC(=O)C2CCN(c3c(-n4c(C)ccc4C)c(C)nn3-c3ccccc3)CC2)cc1`: the “% Inhibition” value amounted to 4% and the Z score is recorded as -0.54.
For `CCC[C@H](O)CN(CCC(C)C)Cc1cccn1Cc1ccccc1C`, in that order: 5% and -0.46.
For the compound `O=C(Nc1cccc2cccnc12)c1ccc2c(c1)CCCC2`, the “% Inhibition” value is listed as 3% and the Z score was -0.34.
The matching figures for `CC(C)n1cc2c(n1)C[C@@H](NC(=O)c1ccc3cnccc3c1)CC2`: -1% and 0.15.
For `Cc1ncc(C(=O)N(C[C@H]2CCCO2)c2ccncc2)c(C)n1`, in that order: -5% and 0.7.
For `COc1c(C)cnc(CN(CC(N)=O)C2CCCC2)c1C`, in that order: -4% and 0.78.
As for `COc1ccccc1CNc1cn[nH]c(=O)n1`, the “% Inhibition” value is -4% and the Z score was 0.6.
The matching figures for `N#Cc1cccc(N2CCN(Cc3cc4ccccc4[nH]3)C[C@H](O)C2)n1`: 2% and -0.33.
Consider `COc1ccc(-c2c(-c3ccc(C)c(C)c3)[nH]c3c2c(=O)[nH]c(=O)n3C)cc1`, for which the “% Inhibition” value was -4% and the Z score was found to be 0.68.
For `COCCn1c(-c2ccnn2C)nnc1N1C[C@H]2CC=CC[C@H]2C1`, in that order: -3% and 0.47.
For `O=C1COc2c(cccc2NC(=O)c2ccoc2Cl)N1`, in that order: 1% and -0.2.
The matching figures for `COc1cc([C@@H]2NC(=O)c3sc(=S)n(-c4ccccc4)c3N2)ccc1OCc1ccccc1`: -6% and 0.61.
For `Cc1oc(-c2ccc(C(C)C)cc2)nc1Cn1cnc2nc3c(cc2c1=O)CCCC3`, the “% Inhibition” value is reported as -16% and the Z score is given as 2.11.
With `CC[C@@H](C(=O)O)N(C)Cc1c(OC)ccc(F)c1F`, the “% Inhibition” value is -4% and the Z score stood at 0.51.
For `C[C@@H](CCc1ccc(O)cc1)N1CCC(N2CCC(C(=O)NC3CC3)CC2)CC1`, in that order: 7% and -1.05.
For the compound `CCn1ncc(CNC(=O)Nc2sc(C)nc2CC(C)C)n1`, the “% Inhibition” value was -4% and the Z score is listed as 0.89.
For `CCCCc1c(C)[nH]c2nc(N(Cc3ccc(C#N)cc3)C(=O)c3ccc(OC)cc3)nn2c1=O`, in that order: -2% and 0.27.
Turning to `CCN1CCCC[C@H]1C(=O)N1CCOc2ccc(CN3CCc4ccccc4C3)cc2C1`, the “% Inhibition” value is listed as -3% and the Z score was 0.41.
Take `O=C(NC1CC1)C1(C(=O)N2CCCC2)CCC1`: the “% Inhibition” value turned out to be 1% and the Z score is -0.14.
Regarding `Cc1nn(C)c(C)c1NC(=O)N1CCN[C@H](c2ccccc2Cl)C1`, the “% Inhibition” value was -2% and the Z score is recorded as 0.3.
The matching figures for `CS(=O)(=O)N1CC(C(=O)Nc2cccc3nsnc23)C1`: -20% and 3.07.
Take `COc1cc(C)nc(N[C@@H](C)c2nc(C)cs2)n1`: the “% Inhibition” value is on record as -4% and the Z score worked out at 0.31.
For `CCc1ccc(C(=O)NCCCn2ccnn2)[nH]1`, in that order: 0% and -0.05.
Regarding `CC(C)Cc1ccc(CNCc2n[nH]c(=O)[nH]2)s1`, the “% Inhibition” value is -5% and the Z score stood at 0.99.
For `O=C(NCC1CCCO1)C1CC1c1ccccc1` (configuration not stated), in that order: -2% and 0.26.
The matching figures for `O=C(NCCc1c[nH]c2ccccc12)C(=O)NCCc1c[nH]c2ccccc12`: -2% and 0.31.
Turning to `COc1ccc(-n2nc(C(=O)N3CCCC3)c(=O)n(Cc3cccc(C(F)(F)F)c3)c2=O)cc1OC`, the “% Inhibition” value is reported as -15% and the Z score is recorded as 2.08.
For `O=C1C[C@H](c2csc(-c3ccccc3)n2)C2(CCCC2)O1`, in that order: -16% and 2.47.
For the compound `Cc1ncccc1CNc1cncc(F)c1`, the “% Inhibition” value is listed as -13% and the Z score came to 2.53.
The matching figures for `O=C(NCCn1cc(-c2nc(-c3ccccn3)no2)nn1)c1ccccc1Cl`: -19% and 3.69.
With `CC[C@H](C)NC(=O)c1coc(CN(CCc2c[nH]c3ccccc23)Cc2cc(C)ccc2C)n1`, the “% Inhibition” value is listed as -6% and the Z score was determined as 0.54.
For `O=C(Nc1ccccc1C(F)(F)F)C1CN(C(=O)c2ccc(F)c(F)c2)C1`, the “% Inhibition” value is recorded as -13% and the Z score is listed as 2.
The matching figures for `C[C@H](NC(=O)Nc1ccccc1)c1cc2ccccc2o1`: -9% and 0.82.
`Cc1cccc(NCc2cc(C)no2)c1`: the “% Inhibition” value was found to be 7% and the Z score is reported as -0.95.
The matching figures for `CCn1c(=O)c(NCc2nc(C)c[nH]2)nc2ccccc21`: 0% and -0.01.
For `CC(NC(=O)NC1CCCCC1O)c1ccc(-c2cccnc2)cc1` (configuration not stated), in that order: 26% and -2.99.
For the compound `Cc1nc2c(c(N3CCCC3)n1)CCN(C(=O)C(=O)N1CCOCC1)C2`, the “% Inhibition” value was -12% and the Z score stood at 2.3.
In the case of `CS(=O)(=O)N1CCN(C(=O)N2CCC(=C3CCC3)CC2)C1=O`, the “% Inhibition” value is -9% and the Z score was determined as 1.41.
The matching figures for `COc1ccc(N2CCC(C(=O)NC3CCCCCCC3)CC2)nn1`: -7% and 0.83.
The matching figures for `CC(C)c1nc(C(=O)NCCCn2cnnc2)cs1`: -13% and 1.73.
Regarding `CC1=C(CCN2CCC(C(N)=O)CC2)C(C)(C)CCC1`, the “% Inhibition” value is listed as -11% and the Z score amounted to 2.02.
For `Cc1cn2nc(NC3CCN(C(=O)C4CCCOC4)C3)ccc2n1` (configuration not stated), in that order: -8% and 1.02.
For `C#CCCC1(CCC(=O)N2CCCN(C(=O)CC)CC2)N=N1`, in that order: -3% and 0.31.
As to `CN(C)S(=O)(=O)c1cc(Br)ccc1Br`, the “% Inhibition” value is -2% and the Z score came out at 0.15.
`O=C(NC1CCCC1)N1CCOc2ccc(C(=O)N3CCOCC3)cc2C1`: the “% Inhibition” value is listed as -6% and the Z score was found to be 0.9.
For `Cc1c(NCc2ccccn2)cccc1C(=O)N1CC[C@@]2(CCCNC2)C1`, in that order: 2% and -0.25.
For the compound `O=C(Nc1ccccc1)c1ccc(S(=O)(=O)c2ccccc2)cc1`, the “% Inhibition” value came out at 7% and the Z score is -0.87.
For `O=C(Nc1nc2c3c(ccc2s1)CCCC3)c1nccn2ccnc12`, in that order: 8% and -0.88.
Regarding `N#Cc1ccccc1S(=O)(=O)NCc1ccnc(-c2ccsc2)c1`, the “% Inhibition” value is given as -11% and the Z score is listed as 1.21.
With `O=S1(=O)CCC(CNC2CCc3ccc(F)cc32)C1` (configuration not stated), the “% Inhibition” value is recorded as -8% and the Z score was 1.29.
For `O=C1CCN(C(=O)c2ccccc2)CCC[C@H](C(=O)NCc2ccc(F)cc2)CCN1`, in that order: -1% and 0.12.
The matching figures for `COCC(C)(C)CNc1ncc(C(=O)O)cc1Cl`: -1% and 0.11.
For `Cc1ccc(NC(=O)[C@H]2CC(=O)N(CCc3c[nH]c4ccc(C)cc34)C2)c(C)c1`, in that order: -1% and 0.1.
For the compound `COCC1(C(=O)NCc2cccnc2N2CCCCCCC2)CCC1`, the “% Inhibition” value is reported as -2% and the Z score is reported as 0.34.
For `C[C@H]1C[C@@H](O)CCN1Cc1ccccc1F`, in that order: -17% and 2.15.
Turning to `CN1CCCC(CNc2ncccc2C#N)C1c1cccs1` (configuration not stated), the “% Inhibition” value is on record as -5% and the Z score was 0.52.
On to `CC(=O)Oc1c(-c2ccc(NC(=O)c3ccccc3Cl)cc2)c(CC(C)C)nn1-c1cccc(C)c1`, for which the “% Inhibition” value is listed as -1% and the Z score is reported as 0.11.
The matching figures for `CN(Cc1cnccn1)S(=O)(=O)c1ccc2cn[nH]c2c1`: -4% and 0.5.
Turning to `O=C(Nc1scnc1-c1ccc(F)cc1)C1CC1c1ccco1` (configuration not stated), the “% Inhibition” value is recorded as -1% and the Z score came to 0.09.
The matching figures for `COCC(=O)Nc1ccc2c(c1)CN(C(=O)OC(C)(C)C)C2`: 6% and -0.71.
As to `Cc1ccc2[nH]c(CCNC(=O)C[C@H]3CCCOC3)nc2c1`, the “% Inhibition” value was -4% and the Z score is given as 0.49.
Turning to `CCc1nccc(CN(C)Cc2nccn2CC)n1`, the “% Inhibition” value was -5% and the Z score is listed as 0.63.
Turning to `Cc1nn(CC(=O)NCCc2ccc[nH]2)c2ncccc12`, the “% Inhibition” value is -8% and the Z score was found to be 1.48.
As for `O=C(CN1C(=O)CCC1=O)NCC(c1ccco1)c1ccco1`, the “% Inhibition” value was -6% and the Z score is on record as 0.81.
For `c1csc([C@@H]2CN(c3nc4ccccc4[nH]3)CCO2)c1`, the “% Inhibition” value was 4% and the Z score is on record as -0.83.
For `CCC(=O)N1CCc2ccc(OCc3ccc(C(=O)NCC4CC4)o3)cc2[C@@H]1c1cccc(C)c1`, in that order: -18% and 1.63.
Consider `Cc1cccc(C)c1[C@@H]1CCCN1C(=O)NCc1nnn(C)n1`, for which the “% Inhibition” value is -1% and the Z score turned out to be 0.12.
For `CCc1ccc(CN2CCCC[C@@H]2CCC(=O)O)nc1`, in that order: -5% and 0.87.
The matching figures for `COc1ccccc1-c1[nH]c2[nH]c(=O)[nH]c(=O)c2c1[C@H]1C(=O)N(C)c2ccccc21`: 1% and -0.1.
For `CN(CC(=O)N1CCCCC1)Cc1ncon1`, in that order: 3% and -0.62.
Regarding `CCN(C(=O)c1oc(C)nc1C)c1ccccc1S(=O)(=O)CC`, the “% Inhibition” value is recorded as 4% and the Z score is reported as -0.63.
The matching figures for `COCCN(C)CCNC(=O)C(=O)c1ccc(Br)cc1`: -8% and 0.81.
For the compound `O=C1NC(c2cccc(Cl)c2Cl)C(C(=O)c2cccnc2)C(O)(C(F)(F)F)N1` (configuration not stated), the “% Inhibition” value was 26% and the Z score was -2.92.
For `CC[C@@H](c1ccccn1)n1cc(-c2cc(CN(C)C)cs2)nn1`, in that order: -6% and 0.72.
For `Cc1ccc(CNc2nnc(N3CCOCC3)c3ccccc23)cc1`, in that order: -15% and 1.34.
In the case of `CC(C)Cc1nc2cc(NS(=O)(=O)N(C)C)cc(C(=O)N3CCN(c4ccccc4)CC3)c2n1C`, the “% Inhibition” value is recorded as -11% and the Z score worked out at 1.47.
The matching figures for `CCc1c(C(=O)N(C)Cc2ccon2)cnn1C(C)(C)C`: -2% and 0.33.
The matching figures for `Cc1ccc(C(CNC(=O)N2CC3CCC2C3)N2CCCC2)o1` (configuration not stated): 26% and -2.99.
The matching figures for `CC(C)(C)c1coc(CNC(=O)c2cnn3c2OCCC3)n1`: -6% and 1.16.
Regarding `CCO[C@@H](C)C(=O)NS(=O)(=O)c1ccc2c(c1)OCCCO2`, the “% Inhibition” value is on record as -25% and the Z score was 2.92.
Take `CO[C@H]1CN(C(C)C)C[C@@H]1NS(=O)(=O)NCc1ccccc1`: the “% Inhibition” value is -6% and the Z score worked out at 0.87.
The matching figures for `O=C(NC1CCC2OCCOC2C1)c1ccsc1` (configuration not stated): -5% and 1.01.
The matching figures for `CC(C)[C@H](NC(=O)c1ccco1)C(=O)NCc1nnc2ccccn12`: -8% and 1.59.
For `Cc1ccn2c(O)c(C(=O)NC[C@H](C)O)c(=O)nc2c1`, the “% Inhibition” value stood at 3% and the Z score is -0.44.
Turning to `Nc1ccc(S(=O)(=O)Nc2nc3ccccc3o2)cc1`, the “% Inhibition” value is given as -19% and the Z score was found to be 3.61.
For `COCC1(S(=O)(=O)N2CCOC[C@H]2c2nc(-c3cccs3)no2)CC1`, in that order: -12% and 1.57.
